# Experimental data published in the supplement of paper PMC11741623.
# This is one part of the list. Interaction screen of human proteins with wild-type SARS-CoV-2 proteins by split-DHFR complementation in yeast, 1 µg/mL methotrexate. Value = fitness of the pair (three or more lineages) minus that of the viral protein without a human partner, on a scale set by negative (0) and fused positive (1) controls, mean of up to three cultures; higher = more likely to interact. Active = false discovery rate below 0.05 (one-sided t-test) in at least one culture. Nearly all pairs are not hits, and differences among them are mostly noise (correlation between cultures about 0.3); most hits were seen in one culture only. Human sequences are the Swiss-Prot entries looked up by gene name; the clone may be another isoform. NSP2 values were corrected by the authors for a growth advantage. Listed are human proteins with a hit and a random twelfth of the others.
# B1: C5orf54, Q8IZ13 (protein)
# chain: MSKKRKWDDDYVRYWFTCTTEVDGTQRPQCVLCNSVFSNADLRPSKLSDHFNRQHGGVAGHDLNSLKHMPAPSDQSETLKAFGVASHEDTLLQASYQFAYLCAKEKNPHTVAEKLVKPCALEIAQIVLGPDAQKKLQQVPLSDDVIHSRIDEMSQDILQQVLEDIKASPLKVGIQLAETTDMDDCSQLMAFVRYIKEREIVEEFLFCEPLQLSMKGIDVFNLFRDFFLKHKIALDVCGSVCTDGASSMLGENSEFVAYVKKEIPHIVVTHCLLNPHALVIKTLPTKLRDALFTVVRVINFIKGRAPNHRLFQAFFEEIGIEYSVLLFHTEMRWLSRGQILTHIFEMYEEINQFLHHKSSNLVDGFENKEFKIHLAYLADLFKHLNELSASMQRTGMNTVSAREKLSAFVRKFPFWQKRIEKRNFTNFPFLEEIIVSDNEGIFIAAEITLHLQQLSNFFHGYFSIGDLNEASKWILDPFLFNIDFVDDSYLMKNDLAELRASGQILMEFETMKLEDFWCAQFTAFPNLAKTALEILMPFATTYLCELGFSSLLHFKTKSRSCFNLSDDIRVAISKKVPRFSDIIEQKLQLQQKSL
# B2: PA2G4, Q9UQ80 (protein)
# chain: MSGEDEQQEQTIAEDLVVTKYKMGGDIANRVLRSLVEASSSGVSVLSLCEKGDAMIMEETGKIFKKEKEMKKGIAFPTSISVNNCVCHFSPLKSDQDYILKEGDLVKIDLGVHVDGFIANVAHTFVVDVAQGTQVTGRKADVIKAAHLCAEAALRLVKPGNQNTQVTEAWNKVAHSFNCTPIEGMLSHQLKQHVIDGEKTIIQNPTDQQKKDHEKAEFEVHEVYAVDVLVSSGEGKAKDAGQRTTIYKRDPSKQYGLKMKTSRAFFSEVERRFDAMPFTLRAFEDEKKARMGVVECAKHELLQPFNVLYEKEGEFVAQFKFTVLLMPNGPMRITSGPFEPDLYKSEMEVQDAELKALLQSSASRKTQKKKKKKASKTAENATSGETLEENEAGD
# B3: PACRG, Q96M98 (protein)
# chain: MVAEKETLSLNKCPDKMPKRTKLLAQQPLPVHQPHSLVSEGFTVKAMMKNSVVRGPPAAGAFKERPTKPTAFRKFYERGDFPIALEHDSKGNKIAWKVEIEKLDYHHYLPLFFDGLCEMTFPYEFFARQGIHDMLEHGGNKILPVLPQLIIPIKNALNLRNRQVICVTLKVLQHLVVSAEMVGKALVPYYRQILPVLNIFKNMNGSYSLPRLECSGAIMARCNLDHLGSSDPPTSASQVAEIIVNSGDGIDYSQQKRENIGDLIQETLEAFERYGGENAFINIKYVVPTYESCLLN
# B4: ZNF597, Q96LX8 (protein)
# chain: MASMPPTPEAQGPILFEDLAVYFSQEECVTLHPAQRSLSKDGTKESLEDAALMGEEGKPEINQQLSLESMELDELALEKYPIAAPLVPYPEKSSEDGVGNPEAKILSGTPTYKRRVISLLVTIENHTPLVELSEYLGTNTLSEILDSPWEGAKNVYKCPECDQNFSDHSYLVLHQKIHSGEKKHKCGDCGKIFNHRANLRTHRRIHTGEKPYKCAKCSASFRQHSHLSRHMNSHVKEKPYTCSICGRGFMWLPGLAQHQKSHSAENTYESTNCDKHFNEKPNLALPEETFVSGPQYQHTKCMKSFRQSLYPALSEKSHDEDSERCSDDGDNFFSFSKFKPLQCPDCDMTFPCFSELISHQNIHTEERPHKCKTCEESFALDSELACHQKSHMLAEPFKCTVCGKTFKSNLHLITHKRTHIKNTT
# Target: SARS-CoV-2 E
# Assay: yeast fitness gain over the viral ORF with no human partner (scaled fitness); higher = more likely to interact
# Protocol: (§1)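 Split mouse DHFR complementation in pooled diploid yeast: human ORFeome clones carry one fragment and viral ORFs the other; barcoded lineages compete in 1 µg/mL methotrexate and fitness is read by barcode sequencing in up to three cultures.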
row,Binder,yeast fitness gain
1,B1,inactive: 0.105
2,B2,inactive: 0.0516
3,B3,inactive: 0.0465
4,B4,inactive: -0.0467

# Target: SARS-CoV-2 NSP12
# Assay: as above
# Protocol: as §1
row,Binder,yeast fitness gain
1,B1,inactive: -0.00743
2,B2,inactive: 0.0773
3,B3,inactive: 0.00191
4,B4,inactive: -0.00974

# Target: SARS-CoV-2 NSP13
# Assay: as above
# Protocol: as §1
row,Binder,yeast fitness gain
1,B1,inactive: -0.0356
2,B2,inactive: 0.0447
3,B3,inactive: -0.0105
4,B4,inactive: 0.014

# Target: SARS-CoV-2 NSP2
# Assay: as above
# Protocol: as §1
row,Binder,yeast fitness gain
1,B1,inactive: -0.506
2,B2,active: 0.545
3,B3,inactive: -0.141
4,B4,inactive: -0.0837

# Target: SARS-CoV-2 ORF3B
# Assay: as above
# Protocol: as §1
row,Binder,yeast fitness gain
1,B1,inactive: 0.0132
2,B2,inactive: -0.0516
3,B3,inactive: -0.0159
4,B4,inactive: -0.0273

# Target: SARS-CoV-2 ORF6
# Assay: as above
# Protocol: as §1
row,Binder,yeast fitness gain
1,B1,inactive: 0.023
2,B2,inactive: 0.0192
3,B3,inactive: 0.0463
4,B4,inactive: 0.00296

# Target: SARS-CoV-2 ORF7B
# Assay: as above
# Protocol: as §1
row,Binder,yeast fitness gain
1,B1,inactive: -0.111
2,B2,inactive: -0.0767
3,B3,inactive: -0.0146
4,B4,inactive: -0.0455

# Target: SARS-CoV-2 M
# Assay: as above
# Protocol: as §1
row,Binder,yeast fitness gain
1,B2,inactive: -0.123
2,B3,inactive: -0.0294
3,B4,inactive: -0.0655

# Target: SARS-CoV-2 NSP1
# Assay: as above
# Protocol: as §1
row,Binder,yeast fitness gain
1,B2,inactive: 0.114
2,B3,inactive: -0.0231
3,B4,inactive: -0.114

# Target: SARS-CoV-2 NSP10
# Assay: as above
# Protocol: as §1
row,Binder,yeast fitness gain
1,B2,inactive: -0.253
2,B3,inactive: -0.0833
3,B4,inactive: -0.0151

# Target: SARS-CoV-2 NSP4
# Assay: as above
# Protocol: as §1
row,Binder,yeast fitness gain
1,B2,inactive: -0.0677
2,B3,inactive: 0.0481

# Target: SARS-CoV-2 NSP5
# Assay: as above
# Protocol: as §1
row,Binder,yeast fitness gain
1,B2,inactive: -0.148
2,B3,inactive: -0.00846
3,B4,inactive: 0.089

# Target: SARS-CoV-2 NSP6
# Assay: as above
# Protocol: as §1
row,Binder,yeast fitness gain
1,B2,inactive: -0.2
2,B3,inactive: -0.00982
3,B4,inactive: 0.0209

# Target: SARS-CoV-2 NSP7
# Assay: as above
# Protocol: as §1
row,Binder,yeast fitness gain
1,B2,inactive: -0.0469
2,B3,inactive: -0.0758
3,B4,inactive: 0.046

# Target: SARS-CoV-2 NSP8
# Assay: as above
# Protocol: as §1
row,Binder,yeast fitness gain
1,B2,inactive: -0.0375
2,B3,inactive: 0.0208
3,B4,inactive: -0.101

# Target: SARS-CoV-2 NSP9
# Assay: as above
# Protocol: as §1
row,Binder,yeast fitness gain
1,B2,inactive: 0.0417
2,B3,inactive: -0.0239

# Target: SARS-CoV-2 ORF10
# Assay: as above
# Protocol: as §1
row,Binder,yeast fitness gain
1,B2,inactive: -0.162
2,B3,inactive: -0.0244
3,B4,inactive: -0.0408

# Target: SARS-CoV-2 ORF8
# Assay: as above
# Protocol: as §1
row,Binder,yeast fitness gain
1,B2,inactive: -0.198
2,B3,inactive: -0.0792
3,B4,inactive: -0.0307

# Target: SARS-CoV-2 ORF9B
# Assay: as above
# Protocol: as §1
row,Binder,yeast fitness gain
1,B2,inactive: -0.0712
2,B3,inactive: -0.0485
3,B4,inactive: 0.0414

# Target: SARS-CoV-2 S
# Assay: as above
# Protocol: as §1
row,Binder,yeast fitness gain
1,B2,inactive: 0.241
2,B3,inactive: -0.00997
3,B4,inactive: 0.0496

# Target: SARS-CoV-2 N
# Assay: as above
# Protocol: as §1
row,Binder,yeast fitness gain
1,B3,inactive: 0.0609
2,B4,inactive: -0.387

# Target: SARS-CoV-2 NSP14
# Assay: as above
# Protocol: as §1
row,Binder,yeast fitness gain
1,B3,inactive: -0.02

# Target: SARS-CoV-2 NSP15
# Assay: as above
# Protocol: as §1
row,Binder,yeast fitness gain
1,B3,inactive: 0.00554
2,B4,inactive: -0.0827

# Target: SARS-CoV-2 NSP16
# Assay: as above
# Protocol: as §1
row,Binder,yeast fitness gain
1,B3,inactive: 0.0152
2,B4,inactive: 0.0498

# Target: SARS-CoV-2 ORF3A
# Assay: as above
# Protocol: as §1
row,Binder,yeast fitness gain
1,B3,inactive: 0.161
2,B4,inactive: -0.103

# Target: SARS-CoV-2 ORF7A
# Assay: as above
# Protocol: as §1
row,Binder,yeast fitness gain
1,B3,inactive: -0.0865
2,B4,inactive: -0.0973

# Target: SARS-CoV-2 ORF9Bwu (the 73-codon ORF)
# Assay: as above
# Protocol: as §1
row,Binder,yeast fitness gain
1,B3,inactive: 0.0537
2,B4,inactive: 0.0203
